The IC50 comes from the fitted curve, where viability falls to half of the control; a fit beyond the top or the lowest dose is shown as a bound at that dose. AUC is the area under the same curve over the 256-fold range up to the top dose, as a fraction; the more sensitive the line, the further below 1. The top dose, if marked as inferred, comes from the curve model; the source does not state it.

Compound in this assay: CCOc1cc2ncc(C#N)c(Nc3ccc(F)c(Cl)c3)c2cc1NC(=O)/C=C/CN(C)C [EKB-569]
The assay can be described thus: Viability of human cancer cell lines after 72 h of drug (GDSC screen). The following applies: top dose inferred. The method, then:
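Human cancer cell lines in 384-well plates, medium with 10% serum, drug for 72 h over a 256-fold dose range (nine 2-fold or five 4-fold steps up to the top dose). Adherent lines were fixed and stained with the nucleic acid dye Syto60, suspension lines read with resazurin; signal relative to control wells, capped at 0 and 100%. One two-parameter sigmoid per drug and line, fitted in a mixed model over all curves with the slope shared within a line.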
One may read the IC50 as the midpoint of a concentration-inhibition curve. Turning to “D-336MG (glioma, adherent, top dose 2.5 µM)”, the AUC was determined as 0.88 and the IC50 was greater than 2.5 µM.
On the same counts, the results for “KM12 (large intestine, adherent, top dose 20 µM)” are 0.714 and 5.33 µM.
Consider “EW-16 (Ewing sarcoma, adherent, top dose 2.5 µM)”, for which the AUC stood at 0.868 and the IC50 came to 2.46 µM.
On the same counts, the results for “NCI-H1435 (lung adenocarcinoma, semi-adherent, top dose 2.5 µM)” are 0.993 and greater than 2.5 µM.
Taken in the same sequence, the figures for “TE-8 (oesophagus, adherent, top dose 2.5 µM)” were 0.915 and greater than 2.5 µM.
On the same counts, the results for “CAL-29 (bladder, adherent, top dose 2.5 µM)” are 0.821 and 1.59 µM.
In the case of “D-566MG (glioma, adherent, top dose 2.5 µM)”, the AUC is 0.949 and the IC50 is greater than 2.5 µM.
As to “Hs683 (glioma, adherent, top dose 2.5 µM)”, the AUC turned out to be 0.969 and the IC50 was greater than 2.5 µM.
Taken in the same sequence, the figures for “NCI-H1876 (small cell lung carcinoma, adherent, top dose 2.5 µM)” were 0.954 and greater than 2.5 µM.
On the same counts, the results for “NCI-H2405 (lung adenocarcinoma, adherent, top dose 2.5 µM)” are 0.915 and greater than 2.5 µM.
Taken in the same sequence, the figures for “ST486 (Burkitt lymphoma, suspension, top dose 2.5 µM)” were 0.823 and 1.26 µM.
“UACC-812 (breast, adherent, top dose 2.5 µM)”: the AUC was determined as 0.965 and the IC50 was greater than 2.5 µM.
Taken in the same sequence, the figures for “8305C (thyroid, adherent, top dose 2.5 µM)” were 0.966 and greater than 2.5 µM.
On the same counts, the results for “LXF-289 (lung adenocarcinoma, adherent, top dose 2.5 µM)” are 0.957 and greater than 2.5 µM.
Taken in the same sequence, the figures for “H3255 (lung adenocarcinoma, adherent, top dose 2.5 µM)” were 0.339 and 0.0508 µM.
Regarding “CMK (acute myeloid leukaemia, suspension, top dose 2.5 µM)”, the AUC is 0.261 and the half-maximal inhibitory concentration (IC50) is 0.0371 µM.
For the cell line “RMG-I (ovary, adherent, top dose 2.5 µM)”, the AUC is 0.781 and the IC50 came out at 1.22 µM.
On the same counts, the results for “EPLC-272H (lung squamous cell carcinoma, adherent, top dose 2.5 µM)” are 0.726 and 0.752 µM.
On the same counts, the results for “SW780 (bladder, adherent, top dose 2.5 µM)” are 0.985 and greater than 2.5 µM.
On the same counts, the results for “MDA-MB-415 (breast, adherent, top dose 2.5 µM)” are 0.981 and greater than 2.5 µM.
For “D-502MG (glioma, adherent, top dose 2.5 µM)”, the AUC is 0.806 and the IC50 is 2.26 µM.
In the case of “SNU-C5 (large intestine, adherent, top dose 2.5 µM)”, the AUC is 0.974 and the IC50 is greater than 2.5 µM.
On the same counts, the results for “NCI-H1648 (lung adenocarcinoma, adherent, top dose 20 µM)” are 0.595 and 2.32 µM.
Turning to “NCI-H520 (lung squamous cell carcinoma, adherent, top dose 2.5 µM)”, the AUC was 0.869 and the IC50 worked out at 2.44 µM.
Taken in the same sequence, the figures for “NCI-H1688 (small cell lung carcinoma, adherent, top dose 2.5 µM)” were 0.972 and greater than 2.5 µM.
As to “DOV13 (ovary, adherent, top dose 2.5 µM)”, the AUC is 0.967 and the concentration for half-maximal inhibition (IC50) was greater than 2.5 µM.
On the same counts, the results for “ChaGo-K-1 (non-small cell lung carcinoma, adherent, top dose 2.5 µM)” are 0.964 and greater than 2.5 µM.
On the same counts, the results for “no-10 (glioma, adherent, top dose 2.5 µM)” are 0.947 and greater than 2.5 µM.
On the same counts, the results for “LCLC-103H (large cell lung carcinoma, adherent, top dose 2.5 µM)” are 0.942 and greater than 2.5 µM.
Regarding “NCI-H650 (lung adenocarcinoma, adherent, top dose 2.5 µM)”, the AUC stood at 0.905 and the IC50 is greater than 2.5 µM.
With “OV-17R (ovary, adherent, top dose 2.5 µM)”, the AUC stood at 0.931 and the IC50 is greater than 2.5 µM.
On the same counts, the results for “HPAC (pancreas, adherent, top dose 2.5 µM)” are 0.69 and 0.668 µM.
Taken in the same sequence, the figures for “NB6 (neuroblastoma, adherent, top dose 2.5 µM)” were 0.916 and greater than 2.5 µM.
On the same counts, the results for “NCI-H460 (large cell lung carcinoma, adherent, top dose 2.5 µM)” are 0.99 and greater than 2.5 µM.
Turning to “HCC1599 (breast, suspension, top dose 20 µM)”, the AUC came to 0.397 and the concentration for half-maximal inhibition (IC50) turned out to be 0.626 µM.
Taken in the same sequence, the figures for “NCI-H292 (lung adenocarcinoma, adherent, top dose 2.5 µM)” were 0.876 and greater than 2.5 µM.
As to “CAMA-1 (breast, adherent, top dose 2.5 µM)”, the AUC is 0.958 and the IC50 is greater than 2.5 µM.
On the same counts, the results for “NCI-H2291 (lung adenocarcinoma, adherent, top dose 2.5 µM)” are 0.976 and greater than 2.5 µM.
Taken in the same sequence, the figures for “PCI-4B (head and neck, adherent, top dose 2.5 µM)” were 0.584 and 0.261 µM.
Taken in the same sequence, the figures for “G-402 (soft tissue, adherent, top dose 2.5 µM)” were 0.918 and greater than 2.5 µM.
Take “LU-99A (large cell lung carcinoma, adherent, top dose 2.5 µM)”: the AUC stood at 0.964 and the 50% inhibitory concentration (IC50) was greater than 2.5 µM.
On the same counts, the results for “LAN-6 (neuroblastoma, adherent, top dose 2.5 µM)” are 0.983 and greater than 2.5 µM.
On to “VAL (B-cell lymphoma, suspension, top dose 2.5 µM)”, for which the AUC was found to be 0.793 and the half-maximal inhibitory concentration (IC50) stood at 1.15 µM.
Taken in the same sequence, the figures for “SNU-423 (liver, adherent, top dose 2.5 µM)” were 0.831 and 1.97 µM.
Taken in the same sequence, the figures for “SBC-3 (small cell lung carcinoma, adherent, top dose 2.5 µM)” were 0.861 and 1.81 µM.
On the same counts, the results for “H513 (mesothelioma, semi-adherent, top dose 2.5 µM)” are 0.815 and 1.76 µM.
With “COLO-320-HSR (large intestine, suspension, top dose 2.5 µM)”, the AUC amounted to 0.982 and the 50% inhibitory concentration (IC50) is greater than 2.5 µM.
On the same counts, the results for “OC-314 (ovary, adherent, top dose 2.5 µM)” are 0.882 and 1.99 µM.
Taken in the same sequence, the figures for “FU-OV-1 (ovary, adherent, top dose 2.5 µM)” were 0.852 and greater than 2.5 µM.
On the same counts, the results for “DND-41 (T-cell leukaemia, suspension, top dose 2.5 µM)” are 0.904 and greater than 2.5 µM.
Take “OVTOKO (ovary, adherent, top dose 2.5 µM)”: the AUC worked out at 0.826 and the IC50 came to 2.11 µM.
On the same counts, the results for “LN-18 (glioma, adherent, top dose 2.5 µM)” are 0.994 and greater than 2.5 µM.
In the case of “NCI-H2171 (small cell lung carcinoma, suspension, top dose 2.5 µM)”, the AUC is 0.946 and the IC50 was greater than 2.5 µM.
Taken in the same sequence, the figures for “OPM-2 (myeloma, suspension, top dose 2.5 µM)” were 0.835 and 1.23 µM.
Taken in the same sequence, the figures for “HCC1428 (breast, adherent, top dose 2.5 µM)” were 0.967 and greater than 2.5 µM.
On to “SUP-B15 (lymphoblastic leukaemia, suspension, top dose 2.5 µM)”, for which the AUC turned out to be 0.834 and the 50% inhibitory concentration (IC50) stood at 1.54 µM.
Turning to “SW837 (large intestine, adherent, top dose 2.5 µM)”, the AUC was determined as 0.87 and the IC50 was greater than 2.5 µM.
Taken in the same sequence, the figures for “HCC-15 (lung squamous cell carcinoma, adherent, top dose 2.5 µM)” were 0.948 and greater than 2.5 µM.
As to “HEL (acute myeloid leukaemia, semi-adherent, top dose 2.5 µM)”, the AUC came out at 0.395 and the IC50 was determined as 0.0846 µM.
On the same counts, the results for “NCI-H2444 (non-small cell lung carcinoma, adherent, top dose 2.5 µM)” are 0.988 and greater than 2.5 µM.
On the same counts, the results for “BB49-HNC (head and neck, adherent, top dose 2.5 µM)” are 0.97 and greater than 2.5 µM.
Taken in the same sequence, the figures for “SK-GT-4 (oesophagus, adherent, top dose 2.5 µM)” were 0.901 and greater than 2.5 µM.
On to “HCC-56 (large intestine, adherent, top dose 2.5 µM)”, for which the AUC is 0.815 and the 50% inhibitory concentration (IC50) worked out at 1.42 µM.
On the same counts, the results for “LB2518-MEL (melanoma, adherent, top dose 2.5 µM)” are 0.986 and greater than 2.5 µM.
On the same counts, the results for “NCI-H226 (lung squamous cell carcinoma, adherent, top dose 2.5 µM)” are 0.961 and greater than 2.5 µM.

The values are drawn from the supplement of paper PMC4967469.
